In all, about 390,000 compounds went through this assay and about 17,000 (4.4%) were called active. Inconclusive means that the source gave no clear call. Such entries were picked first, then a sample of the others. The call rests on the fitted dose curve; in most records, active means well fitted inhibition curve with a large enough effect; inconclusive means small, poorly fitted or top-dose-only effect; inactive means no such curve, though single readings can be large or run the other way. Potencies beside an inconclusive call are fits to weak or partial responses and may not hold up.
target: Lysine-specific demethylase 4A (Homo sapiens) (UniProt O75164); experiment: qHTS Assay for Inhibitors of JMJD2A-Tudor Domain; settings: AlphaScreen JMJD2A-Tudor / H3K4me3 peptide binding; activity change, negative = inhibition: at 114 µM (top of the series); further: nearly all actives have a fitted effect of over 50% in size
Chain of UniProt O75164 (O75164 whole entry, looked up, the tested form may be a part): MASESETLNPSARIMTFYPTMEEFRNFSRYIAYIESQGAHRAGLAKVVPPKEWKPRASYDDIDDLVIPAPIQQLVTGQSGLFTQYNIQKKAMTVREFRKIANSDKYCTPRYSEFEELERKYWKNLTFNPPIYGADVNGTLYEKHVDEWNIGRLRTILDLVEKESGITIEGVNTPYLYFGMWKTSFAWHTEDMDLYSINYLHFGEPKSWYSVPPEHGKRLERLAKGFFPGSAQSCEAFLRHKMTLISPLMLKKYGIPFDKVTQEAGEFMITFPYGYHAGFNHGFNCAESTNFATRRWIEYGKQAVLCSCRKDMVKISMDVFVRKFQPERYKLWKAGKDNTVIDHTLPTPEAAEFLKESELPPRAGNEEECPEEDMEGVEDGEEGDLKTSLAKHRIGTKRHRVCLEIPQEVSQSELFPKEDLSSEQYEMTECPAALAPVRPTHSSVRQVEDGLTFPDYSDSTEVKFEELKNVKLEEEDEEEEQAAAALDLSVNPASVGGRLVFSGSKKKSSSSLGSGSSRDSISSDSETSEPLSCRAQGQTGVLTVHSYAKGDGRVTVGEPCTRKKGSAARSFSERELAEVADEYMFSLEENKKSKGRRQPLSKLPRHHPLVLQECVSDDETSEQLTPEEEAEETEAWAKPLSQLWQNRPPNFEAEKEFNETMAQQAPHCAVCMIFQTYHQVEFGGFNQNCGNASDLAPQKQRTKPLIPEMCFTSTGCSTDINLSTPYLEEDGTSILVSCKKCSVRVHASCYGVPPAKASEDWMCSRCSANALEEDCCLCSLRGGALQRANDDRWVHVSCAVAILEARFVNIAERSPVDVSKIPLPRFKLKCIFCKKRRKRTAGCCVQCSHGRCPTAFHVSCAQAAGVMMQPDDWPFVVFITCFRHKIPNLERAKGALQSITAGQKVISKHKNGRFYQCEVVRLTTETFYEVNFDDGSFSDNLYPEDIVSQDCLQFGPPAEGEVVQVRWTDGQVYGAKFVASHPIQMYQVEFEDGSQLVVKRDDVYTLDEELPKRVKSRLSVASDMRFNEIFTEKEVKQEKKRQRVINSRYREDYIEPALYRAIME
On the % scale 0 is the no-effect control and ±100 the full control effect; potency means the concentration at half of the fitted maximal effect; tags describe the fitted curve by direction and shape.

Potency, active:
Clc1ccc(OCCCCCN2CCCC2)c(Br)c1 2 µM, CC(=O)Nc1nnc(C2=COCCO2)o1 22.4 µM, CCc1n[nH]c(=S)n1/N=C/c1cc(OC)cc([N+](=O)[O-])c1O 5.01 µM, CCN(CC)c1ccc(/C=N/Nc2ccccc2)c(O)c1 28.2 µM, NCCCC[C@H]1NC(=O)[C@H](CCC(=O)O)NC(=O)c2cc([N+](=O)[O-])cc(I)c2OCC[C@@H](C(N)=O)NC1=O 50.1 µM, Cc1ccc(CNC(=O)CCCC(=O)Nc2cc(C)on2)cc1 15.8 µM, c1ccc(-c2ccc(OCCOCCn3cncn3)cc2)cc1 31.6 µM, COc1ccc(NC(=O)NC(C)(C(F)(F)F)C(F)(F)F)cc1 15.8 µM, Fc1ccc(CN2CCCCCCC2)c(F)c1 3.16 µM, CNC(=S)NNC(=O)COc1cccc(C)c1C 39.8 µM, CCOc1ccccc1NC(=S)Nn1cnnc1 50.1 µM, CCCCN(C)CCn1c(=S)[nH]c2ccc(N3CCOCC3)cc2c1=O 28.2 µM, Cc1cccc2cc(C3CC(c4cccs4)=NN3C(=O)CCC(=O)O)c(Cl)nc12 (configuration not stated) 31.6 µM, COc1cc(-c2nnc(NC(=O)CS(=O)(=O)c3ccc(F)cc3)o2)cc(OC)c1OC 39.8 µM, CC1=NN(c2ccc(C(=O)O)c(N)c2)C(=O)C1 50.1 µM, CC1CCCC(C)N1C(=O)CN1CCN(c2nc(-c3ccc(F)cc3)cs2)CC1 (configuration not stated) 79.4 µM

Potency, inconclusive:
CCN1CCN(C(c2ccc(SC)cc2)c2c(O)cc(C)n(CCOC)c2=O)CC1 (configuration not stated) 89.1 µM [inhibitor, single point], O=C(COC(=O)c1cc(S(=O)(=O)N2CCOCC2)c(Cl)cc1Cl)NCc1ccco1 56.2 µM [inhibitor, partial curve], CN(C)C(CNC(=O)CCc1nc2cc(Cl)ccc2n(Cc2ccccc2)c1=O)c1ccccc1 (configuration not stated) 56.2 µM [inhibitor, partial curve], COc1ccc(Cl)cc1NC(=O)c1c(NCc2cccnc2)sc2c1CCC(C)C2 (configuration not stated) 28.2 µM [inhibitor, partial curve], COc1ccc(NC(=O)/C=C/c2ccc(Br)o2)cn1 63.1 µM [inhibitor, partial curve, poor fit], c1ccc2c(c1)CCN(c1nc3cc4c(cc3s1)OCCO4)C2 22.4 µM [inhibitor, full curve], O=C(Cc1ccccc1)NC(=S)Nc1ccc(N2CCCCC2)cc1 31.6 µM [inhibitor, full curve], Cc1cc(-n2ccnc(NCCc3ccc(S(N)(=O)=O)cc3)c2=O)ccc1Br 50.1 µM [inhibitor, partial curve, poor fit], O=C(COC(=O)c1ccccc1Cl)NCc1ccco1 56.2 µM [inhibitor, partial curve], Cc1ccc(C)c(N2CCN(CCCNC(=O)c3ccc4nc(CCc5ccccc5)oc4c3)CC2)c1 50.1 µM [inhibitor, partial curve], CCO/C=C1/C(=O)N(c2ccccc2OC)C(=O)c2ccccc21 79.4 µM [inhibitor, single point], CCN1C(=NCCc2c[nH]c3ccccc23)N[C@@H](c2ccccc2)[C@H](C(=O)OC)[C@H]1C 22.4 µM [inhibitor, single point], COc1ccc(C2CC(c3ccccc3)=NN2C(=O)c2ccc(Cl)c([N+](=O)[O-])c2)cc1 (configuration not stated) 14.1 µM [inhibitor, partial curve], Oc1c(Br)cc(Br)cc1C=Nc1ccc2c(c1)OCO2 79.4 µM [inhibitor, single point], C/C(=N/Nc1nc(-c2ccccc2)cc(-c2ccc(F)cc2)n1)c1cccc(N)c1 70.8 µM [inhibitor, single point], COc1ccccc1NC(=O)c1cc2ccccc2o/c1=N\O 50.1 µM [inhibitor, partial curve], CC[C@]12c3[nH]c4cc(-c5ccco5)ccc4c3CCN1C(=O)[C@@H](CC(=O)NCCC1=CCCCC1)C[C@@H]2C(=O)N1CCN(C(=O)c2ccco2)CC1 56.2 µM [inhibitor, partial curve], CCOC(=O)Cn1c(=O)n(C2CCCCC2)c2nc(-c3c(F)cccc3Cl)nc(C(N)=O)c21 50.1 µM [inhibitor, partial curve], Oc1c(C(c2ccco2)N2CCN(C(c3ccccc3)c3ccccc3)CC2)sc2ncnn12 (configuration not stated) 39.8 µM [inhibitor, partial curve], CCc1cc(-c2[nH]ncc2-c2ccc(OC)cc2)c(O)cc1O 50.1 µM [inhibitor, partial curve], CCOC(=O)c1ccc2[nH]c(C)c(C)c2c1 79.4 µM [inhibitor, partial curve], CCOc1ccc(N2C(=O)CC(Sc3ccccc3C(=O)O)C2=O)c([N+](=O)[O-])c1 (configuration not stated) 25.1 µM [inhibitor, full curve], Cc1cc(/C=N/NC(=O)C(O)(c2ccccc2)c2ccccc2)c(C)n1-c1cccc(C(=O)O)c1 56.2 µM [inhibitor, partial curve], N#C/C(=C/C1=C(N2CCOCC2)C(=C/c2ccc(Cl)cc2Cl)/CC1)C(=O)Nc1ccccc1F 2.51 µM [inhibitor, full curve, poor fit], c1cc(N2CCCC2)ccc1C(c1nnnn1C1CCCCC1)N1CCOCC1 (configuration not stated) 63.1 µM [inhibitor, partial curve], Cc1nnc(NC(=O)c2ccc(S(=O)(=O)N(C)Cc3ccccc3)cc2)o1 50.1 µM [inhibitor, partial curve], Cn1c(O)c(N=NC(=S)Nc2ccccc2F)c2cc(S(=O)(=O)N3CCOCC3)ccc21 7.08 µM [inhibitor, partial curve], CCCOc1ccc(C(=O)N/N=C/c2ccc(-c3ccc(S(=O)(=O)Nc4ncccn4)cc3)o2)cc1 89.1 µM [inhibitor, single point], COc1ccc(C(c2c(NC(=O)c3ccco3)sc(C)c2C)N2CCOCC2)cc1OC (configuration not stated) 56.2 µM [inhibitor, partial curve, poor fit], C/C(=C\C(=O)c1ccc(Br)cc1)NNC(=O)c1ccccc1 22.4 µM [inhibitor, partial curve], O=C(O)CN1C(=O)/C(=C/c2ccc(-c3cccc(Cl)c3)o2)SC1=S 63.1 µM [inhibitor, partial curve], COc1ccccc1Nc1nc(N)nc(CN2CCc3ccccc3C2)n1 56.2 µM [inhibitor, partial curve], COc1cc2c(C(=O)N3CCN(C)CC3)c(CSc3ccccc3)n(C)c2cc1Br 56.2 µM [inhibitor, partial curve], CN(C)c1ccc(C(CNS(=O)(=O)c2ccc(Cl)cc2)N2CCOCC2)cc1 (configuration not stated) 63.1 µM [inhibitor, partial curve], N#Cc1nc(Cc2ccccc2)oc1NCCCn1ccnc1 56.2 µM [inhibitor, partial curve], COc1ccc(C(=O)NCCc2c[nH]c3ccccc23)cc1S(=O)(=O)N1CCCCC1C (configuration not stated) 28.2 µM [inhibitor, full curve, poor fit], CCCc1nnc2n1N=C(c1ccc(OC)c(OC)c1)CS2 89.1 µM [inhibitor, single point], Nc1nc2n(n1)C(c1ccco1)CC(c1ccc(Cl)c(Cl)c1)N2 (configuration not stated) 79.4 µM [inhibitor, partial curve], CC1CCCN(c2nc3c(c(=O)[nH]c(=O)n3C)n2Cc2ccccc2Cl)C1 (configuration not stated) 25.1 µM [inhibitor, partial curve], COc1cc(Nc2ncc3c(n2)CCN(Cc2cccc(C)c2)C3)cc(OC)c1 39.8 µM [inhibitor, partial curve], COc1ccc(C2Nc3ccccc3C(=O)N2Cc2ccccc2)cc1COc1ccc(C#N)cc1 (configuration not stated) 89.1 µM [inhibitor, partial curve]

Activity change, negative = inhibition, inactive:
CCCCN(C(=O)C1CCCC1)c1c(N)n(CC(C)C)c(=O)[nH]c1=O -31.2%, COc1ccc(OC)c(NC(=O)CCC(=O)Nc2nnc(C(C)C)s2)c1 -10.3%, COC(=O)c1scc(-c2ccc(C)cc2)c1S(=O)(=O)Nc1cc(C)ccc1OC -28.3%, COc1ccc(Nc2nc(C)nc(N)c2S(=O)(=O)c2ccccc2)cc1 -4.48%, CCCCn1c(N)c(N(CCC(C)C)C(=O)C2CCN(C(=O)c3ccccc3C)CC2)c(=O)[nH]c1=O 2.07%, O=c1nc2s/c(=C\c3ccc(-c4ccccc4[N+](=O)[O-])o3)c(=O)n2nc1-c1ccccc1 2.78%, Cc1ccc(-n2c(COCC(=O)O)nc3cccnc32)cc1 -14.6%, Cc1oc(-c2ccc(Cl)cc2)nc1CN1CCCC(C(=O)NCc2ccccc2)C1 (configuration not stated) -32%, O=C(CCn1c(=O)c2ccccc2n(Cc2cccc(Cl)c2)c1=O)NCCc1ccccc1 -16.1%, Cc1ccc(C(=O)Nc2ccc3cn[nH]c3c2)cc1S(=O)(=O)N1CCOCC1 -18%

Source: PubChem BioAssay AID504339 (National Center for Advancing Translational Sciences (NCATS), 2011)
